The supplement of paper PMC11417369
The list shows a part of the results.

Test system: PF3D7_0420300 AP2 domain 1 (GST-tagged)
Assay: gcPBM binding intensity (ln(normalized median fluorescence intensity)); higher = stronger DNA binding
Procedure, shortened: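 Probes on an Agilent 4 × 180k array were primer-extended, double-stranded and 36 bp long, taken from intergenic genomic regions, with negative controls added. GST-tagged P. falciparum DNA-binding domains from E. coli, about 25 μg on average, were applied to the array for 1 h in 1× PBS containing 1% milk, 0.2 mg/ml BSA, 0.5% salmon testes DNA and 0.03% Triton X-100. Binding intensity, obtained after Alexa488 anti-GST antibody detection and a 488 nm scan, is the highest Masliner-normalised natural-log median intensity across replicate spots of either probe orientation.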

| Sequence | gcPBM binding intensity (ln) |
| --- | --- |
| ATTAAATCCGCACGCACACACACATATTAAGAAAAA [CACACA_site6062] | 9.76 |
| GTTGAAAAAAATATATGTACGTATATATGTATGTAT [XGTACX_site8201] | 9.43 |
| TTGGTAAATATATTTTGAATATAAGAAATATAGACG [CACACA_negctrl_site1634] | 9.16 |
| ATTATTACTATATGTGTACACATCAACTGGTTTGAT [CACACA_site5563] | 9.39 |
| TATATATATAACAGAATGCACTTTATATGTTCATAT [GTGCAC_site9880] | 9.23 |
| TATACGTATACCTATACACACATATATTTATTTATA [CACACA_site6716] | 9.47 |
| GATATCCTTATATTTGCACACACACCCAATAAAATG [CACACA_site1028] | 9.99 |
| TAATAAATTCATAATTGTACATTGAAGTATTATGCA [XGTACX_site5121] | 9.05 |
| TTTTTTTATTTTGTATGTACATATCATTTGATATTC [XGTACX_site8449] | 9.37 |
| CACTTAAAAAGCTAACGTACAAATACACATATATAA [XGTACX_site1851] | 9.22 |
| AATATATATATAAATAATATACCTATATATTTTTTG [XGTACX_negctrl_site407] | 9.08 |
| AAAAACAATTTAATCACACATATATGTCACAAAGAT [CACACA_site5043] | 9.58 |
| ATATTAAATATTATCACACACATAATTATTTCCATA [CACACA_site2334] | 9.62 |
| ATATATATATATATATGTACATACATATTGTTTGGT [XGTACX_site2284] | 9.31 |
| ATATAATAATATGGTTGTACATAAATAACACATGAA [XGTACX_site6592] | 9.49 |
| CAAAATATTTTTTCCTGTACATAATTCCTATTTCAC [XGTACX_site3590] | 9.4 |
| ATGATTATACAAAATATACACACGTGTAGACAAATA [CACACA_site1175] | 9.57 |
| TAATAATAGAAACACACACACATAGACATATATATA [CACACA_site1307] | 10.1 |
| TATTTTCAAAATGTTGTACACACAAAAAAAAAAAAA [CACACA_site8437] | 9.25 |
| ATATACTTTTCAATGTGTACTTATGAATATATATGT [XGTACX_site7972] | 9.36 |
| TATTTATAAATATGTGTGCACAATTTATTTTATAAT | 9.17 |
| TTTTTTTTATATATCTGTACATATATATATATATAT [XGTACX_site8280] | 9.28 |
| TTATTTCTAACATGATGTACTTTTATATTATATAAT [XGTACX_site3574] | 9.26 |

| Sequence | gcPBM binding intensity (ln) |
| --- | --- |
| TTTTAACAAAACTAAATAATCATATATATAAGATAT [GTGCAC_negctrl_site298] | 9.01 |
| CATTTCTATATAAGCACACACGTGGAATTTTTTTTT [CACACA_site5537] | 9.39 |
| ATTATTTGAACAACAAAAAAAAAGAAAAGAAAAGAA [CACACA_negctrl_site1031] | 9.33 |
| TCATATTATAAATAAATAAATAAATATATATATATA [CACACA_negctrl_site577] | 8.97 |
| AAATCGTAATATATTTGTACTTATTTGAAAAATCCA [XGTACX_site8141] | 9 |
| TTTTTTTTCTTTTTTTTAAGAAATAAATAAATAATT [XGTACX_negctrl_site137] | 8.7 |
| TATATTTCATTATATTGTACAAAATATATATATTAT [XGTACX_site4644] | 9.04 |
| CATTATATATATTACTAAAAATTTTACCCCTTAGCT [CACACA_negctrl_site302] | 9.17 |
| ATACATGAATAAATATGTACACATATAAAAACATAT [XGTACX_site2740] | 9.59 |
| ATGTATATAAATATACGTACATAAATATAAGTATAG [XGTACX_site7155] | 9.41 |
| TTTTTTCTTTTTATGTGTACTTATTTTATTTAATAA [XGTACX_site1080] | 9.33 |
| AAAAAAGAAAAAAAGTGTACAATATTTATTACATAT [XGTACX_site2277] | 9.35 |
| TTTGTGTATATAACAGTGCAATATTATAAATATAAA [GTGCAC_site9750] | 9.16 |
| AACCCAAAATAATTATGTACATATTTTTAAATATAT [XGTACX_site6487] | 9.33 |
| ATAATCCTTGGACACACACACACACTAGTAAATAAA [CACACA_site4423] | 10.1 |
| GCAAAGCACAAATATGCATGTAGATATAGAATAATG [TGCATGCA_site382] | 9.13 |
| ACTTAATTTTTTTTATGTACTTATTTAAAAAATTTT [XGTACX_site2712] | 9.14 |
| CTTAAAGGGAAAAATACACACATATAAATATTATGT [CACACA_site2225] | 9.47 |
| TTAGTAGTATTATGTAGTACATAATTATCATATCAT [XGTACX_site817] | 9.13 |
| TAATTATTTTTATATTGTACAATATGTAAATATATA [XGTACX_site592] | 8.9 |
| TTTTTTGAATTTAAAAGTACAGGCTTTTACCAAATA [XGTACX_site1356] | 8.76 |
| AATTAAAAAAAAAAAAAAAAAAAAAAATGAAAAAAA [CACACA_negctrl_site1073] | 9.02 |
| ATAAATAAATAAATCTGTACATATGTATATGTATAT [XGTACX_site4537] | 9.27 |

| Sequence | gcPBM binding intensity (ln) |
| --- | --- |
| AAAAAAAAAAAAAAAAGTACATACAACATTATGAAA [XGTACX_site207] | 9.35 |
| ATAATAACTTGTAAGGTGCATTTTATGTTTTCTTAA | 9.26 |
| AGAAATAATATTATTCAAGTATTTATTTAATTTTCA [GTGCAC_negctrl_site475] | 8.91 |
| CTCATCCTTACATACACACACATATATTTATTTATA [CACACA_site6202] | 10 |
| AAATTATAGAATCATTGTACTTTTTTTTTTTTTTTT [XGTACX_site1280] | 9.14 |
| TATGCTTCAAAATTGTGTACATATATAATATATTAT [XGTACX_site6760] | 9.26 |
| TTAATAATTATAACATGTACATACACTAAATTTTTT [XGTACX_site8953] | 9.15 |
| CAAATATATATTTATTGTACATATTGTTTATATGGT [XGTACX_site5246] | 9.18 |
| TATAAAATTATGTGTACACAAATATAACTTTTCTTT [CACACA_site5554] | 9.16 |
| CATCCAAAAATATTATGTACTAAATTTGGATGTATT [XGTACX_site3954] | 9.15 |
| AAAATATTTCTTCTTTGTACTTATATATATTTAATT [XGTACX_site5446] | 9.31 |
| TATTCATATTCCAAGTGTACACATAAATCCCTAATA [XGTACX_site4131] | 9.26 |
| TACTTACCTATAATAACACACAAGAAAAAAATAAAA [CACACA_site6616] | 9.65 |
| AAATAATATCATAAATGTACATATATCATATTATTA [XGTACX_site5372] | 9.19 |
| CAAAATGTTAAAGATACACACCTAACAAACACAAAA [CACACA_site4685] | 9.65 |
| AATTCTTTACTATTCACACATATAAATATTCACTTT [CACACA_site4886] | 9.57 |
| AAATCCATATAGGATTGTACATATATTATATATATA [XGTACX_site8818] | 9.27 |
| AAAAATATTTAAAATACACACATATCTATAATATAT [CACACA_site7032] | 9.52 |
| GTGGTATAAATTTTATGTACTTAATAACTCATTAAT [XGTACX_site5555] | 9.28 |
| ACATATATATTTATATGTACATATATTTATATATAT [XGTACX_site7469] | 9.11 |
| AAAAAAAAAAAACACACACACACAAATACATACACA [CACACA_site706] | 10.2 |
| ACAAAAATGAGATGGTGTACGCACAAATAAATAATA [XGTACX_site5221] | 9.59 |
| ATATAGTTTCACATGTGTACATAAAAATACACTTGT [XGTACX_site3339] | 9.08 |

| Sequence | gcPBM binding intensity (ln) |
| --- | --- |
| AAATATTTATATGTTACACACTGTTTATAATTTTCT [CACACA_site4868] | 9.58 |
| CAATGTATTTAGAATACATGCATATTTTCATAATGT [TGCATGCA_site221] | 9.13 |
| AATTATGCACAAATCACACATATAAAATAAAAAGTG [CACACA_site4474] | 9.52 |
| TTTTTTATTTAAAGTAGTACTTTTTAGAAAACAAAA [XGTACX_site6759] | 8.59 |
| ATTCTAAATATGTATATACACACTTTTAATATTCAT [CACACA_site4118] | 9.47 |
| TTTATGAAACAGTGCACACATAAAAATAAATACATA [CACACA_site5631] | 9.55 |
| TTATTTTAAATTAACACATGCATAATATATGTATAT [TGCATGCA_site597] | 9.03 |
| TTTTCAAAAATATACACACACATAAATATATGTATA [CACACA_site777] | 9.54 |
| AAAAAAATTTTAAAATGTACAAATTTTAATATATAT [XGTACX_site7628] | 9.02 |
| GAAAATTCATAAAAATGTACTTATTATATTATTTAT [XGTACX_site2169] | 9.14 |
| GATATATAACTTTTAACACACAAAAAAAAAAAAAAT [CACACA_site7653] | 9.58 |
| TTATGAATATTGATGTATAAAAAAATATATATGTTA [XGTACX_negctrl_site390] | 9.06 |
| AAAGGTTTGCGTTGTGTGCACAAAATAAATATATAA | 9.43 |
| TAAAATTATGTAATAACACACATATACAATACATAT [CACACA_site1236] | 9.65 |
| AACACCAAACTAAATGTACACACATACATAAATATA [CACACA_site8298] | 9.75 |
| AATATAAACACAAACACACACATATATATATATATA [CACACA_site4307] | 9.68 |
| TTATTTAAACAAATCACACACAAATATAAATACATA [CACACA_site5158] | 9.75 |
| CCATGTCAAACATTTGCACACAAAAAAATAAAAATT [CACACA_site4546] | 9.4 |
| AGGTTGAATATATATTTGTGATTATATTATTTTATT [CACACA_negctrl_site778] | 9.5 |
| TATATATATATATAATGTACAAACTCCTTTATATAT [XGTACX_site4545] | 9.22 |
